Among all 310,000 compounds or so, about 14,000 (4.5%) showed an effect of 50% or more. The effect is printed as a negative number. The list shows a part of the results.
The molecules below were run against human ether-à-go-go-related gene (hERG) potassium channel (human, UniProt Q12809) (assay: primary screen, population patch clamp on CHO cells stably expressing hERG).
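Note: peak tail current of the secondary pulse compared with the same well before compound.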

Sequence of human ether-à-go-go-related gene (hERG) potassium channel (Q12809 whole entry, looked up): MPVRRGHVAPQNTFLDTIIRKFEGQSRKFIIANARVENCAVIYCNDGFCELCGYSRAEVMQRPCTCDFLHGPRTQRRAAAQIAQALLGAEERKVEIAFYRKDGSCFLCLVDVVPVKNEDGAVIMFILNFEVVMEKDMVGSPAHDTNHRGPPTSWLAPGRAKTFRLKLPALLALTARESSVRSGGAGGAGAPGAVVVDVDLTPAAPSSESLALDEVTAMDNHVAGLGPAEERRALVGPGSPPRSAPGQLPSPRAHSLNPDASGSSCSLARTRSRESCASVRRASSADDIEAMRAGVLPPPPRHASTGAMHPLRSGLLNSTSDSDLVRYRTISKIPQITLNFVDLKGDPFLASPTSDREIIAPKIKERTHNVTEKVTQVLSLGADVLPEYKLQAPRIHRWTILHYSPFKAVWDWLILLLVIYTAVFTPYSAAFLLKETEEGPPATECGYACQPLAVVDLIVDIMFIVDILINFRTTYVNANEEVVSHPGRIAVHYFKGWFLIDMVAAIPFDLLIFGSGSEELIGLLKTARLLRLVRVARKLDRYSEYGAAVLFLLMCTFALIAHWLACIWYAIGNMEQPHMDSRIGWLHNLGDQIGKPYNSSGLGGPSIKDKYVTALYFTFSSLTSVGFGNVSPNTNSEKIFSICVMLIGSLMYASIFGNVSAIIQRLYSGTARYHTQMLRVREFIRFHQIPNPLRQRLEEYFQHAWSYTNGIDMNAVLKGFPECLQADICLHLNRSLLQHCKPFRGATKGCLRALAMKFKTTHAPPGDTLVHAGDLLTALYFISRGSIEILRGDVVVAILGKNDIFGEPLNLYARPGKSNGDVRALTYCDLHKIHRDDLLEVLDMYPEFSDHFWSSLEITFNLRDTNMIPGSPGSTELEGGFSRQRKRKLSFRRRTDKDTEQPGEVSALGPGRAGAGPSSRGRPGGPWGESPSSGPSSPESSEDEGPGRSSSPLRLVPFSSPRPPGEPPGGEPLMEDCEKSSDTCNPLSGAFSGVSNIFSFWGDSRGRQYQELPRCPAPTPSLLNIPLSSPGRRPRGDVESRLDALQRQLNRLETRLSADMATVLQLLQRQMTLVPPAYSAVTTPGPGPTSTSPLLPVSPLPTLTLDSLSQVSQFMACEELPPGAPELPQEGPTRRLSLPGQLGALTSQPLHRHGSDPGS

Structure (SMILES) | hERG current change (%, negative = inhibition) at 10uM [%]
COc1ccc(C(CNC(=O)c2cc(=O)[nH]c3ccccc23)N2CCCC2)cc1 (stereo not drawn) | 9.16
C#CCSc1nnnn1-c1cccc(Cl)c1 | -9.19
C[C@]12CC[C@@H]3c4ccc(OS(=O)(=O)[O-])cc4CC[C@H]3[C@@H]1CCC2=O.[Na+] | 16.9
O=C(Nc1cccc(Cl)c1)Nc1nccs1 | -2.77
C/C(=N/NC(=O)C1CCN(S(=O)(=O)c2ccc(C)cc2)CC1)c1cccc([N+](=O)[O-])c1 | 8.25
N=c1c(S(=O)(=O)c2ccc(Cl)cc2)cc2c(=O)n3ccccc3nc2n1C1CCCC1 | 14
O=C(O)c1ccc(N2C(=O)/C(=C\c3ccccc3)N=C2c2ccccc2)cc1 | 1.57
Cc1ccccc1N1CC(=O)N(c2ccccc2C)CC1=O | -4.18
O=S(=O)(c1ccccc1)N1CCN=C1SCc1ccc(Cl)cc1 | -2.02
COCCN1CCN(C(=O)c2cc(COc3ccc(Cl)cc3OC)on2)CC1 | 19
CCOC(=O)N1CCC(NC(=O)C2=C(C)C(=O)OC23CCC(C)CC3)CC1 (stereo not drawn) | -7.09
CCOc1ccc(S(=O)(=O)NCc2cccnc2)cc1C | 6.51
CCCc1c(C(=O)N/N=C/c2c(OC)ccc3ccccc23)nnn1-c1nonc1N | 14.4
CC(=O)c1cccc(NC(=O)C2=CN3CCS(=O)(=O)N=C3C=C2)c1 | 10.8
Cc1c(S(=O)(=O)N2CCN(c3cccc(Cl)c3)CC2)c(=O)n(C)c(=O)n1C | 2.47
O=C(Nc1nnc(SCc2cccc(F)c2)s1)c1ccco1 | 2.16
Cc1cc(C)c(C(=O)NC2CC(C)(C)Cc3c2cnn3-c2ccccc2)o1 (stereo not drawn) | -31.4
CC(NS(C)(=O)=O)c1nnc2n1-c1ccc(Br)cc1C(c1ccccc1Cl)=NC2 (stereo not drawn) | -12.2
CCN(C(=S)NCc1ccccc1)c1ccccc1 | -21.2
O=C(CN1CCCc2ccccc21)N1CCc2ccccc21 | 8.15
N#Cc1cccc(NC(=O)NCCc2c[nH]c3ccccc23)c1 | -13.8
COc1ccccc1OC(=O)C1CC(=O)N(c2ccc(Cl)cc2)C1 (stereo not drawn) | -17.7
O=C(O)c1ccc(NC(=O)N2C[C@H]3C[C@@H](C2)c2cccc(=O)n2C3)cc1 | -6.02
CCOc1ccccc1NC(=O)c1cccnc1 | 18.1
